Experimental data: the supplement of paper PMC12217912
The other results are listed elsewhere or left out. Sequences were assembled here from the parent chain. Values near 0.05 are background.

B1: TEV protease; numbered along this chain (parent)
chain: MGESLFKGPRDYNPISSSICHLTNESDGHTTSLYGIGFGPFIITNKHLFRRNNGTLVVQSLHGVFKVKDTTTLQQHLVDGRDMIIIRMPKDFPPFPQKLKFREPQREERICLVTTNFQTKSMSSMVSDTSCTFPSGDGIFWKHWIQTKDGQCGSPLVSTRDGFIVGIHSASNFTNTNNYFTSVPKNFMELLTNQEAQQWVSGWRLNADSVLWGGHKVFMVKPEEPFQPVKEATQL

Variants of: B1
Assay: raw area under fraction-flipped curve 0-4 h after induction (AUC4h, not background-subtracted), DNA-recorder readout of cleavage of the substrate (dimensionless); higher = more cleavage of the substrate by the protease variant
Details: temperature: 34 °C; time window: 0-4 h after rhamnose induction
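Further: Bxb1 expression induced with 0.2% (w/v) L-rhamnose at OD600 near 0.5, cultures sampled hourly, flipped fraction per protease–substrate barcode pair counted by paired-end Illumina sequencing.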

Variant | area with substrate ECLYFQS | area with substrate EELYFQS | area with substrate EMLYFQS | area with substrate EPLYFQS | area with substrate ERLYFQS | area with substrate ESLYFQS | area with substrate EWLYFQS | area with substrate EDLYFQS | area with substrate EILYFQS | area with substrate EKLYFQS | area with substrate ELLYFQS | area with substrate EVLYFQS | area with substrate EYLYFQS | area with substrate EFLYFQS | area with substrate EGLYFQS | area with substrate EQLYFQS | area with substrate ETLYFQS | area with substrate EHLYFQS
T132R | 0.0547 | 0.0371 | 0.0504 | 0.0449 | 0.0496 | 0.0286 | 0.0652 |  |  |  |  |  |  |  |  |  |  | 
S124M | 0.106 | 0.122 | 0.116 | 0.118 |  | 0.101 |  | 0.13 | 0.0847 | 0.11 | 0.113 | 0.109 | 0.0872 |  |  |  |  | 
V113A | 0.0797 | 0.107 |  | 0.092 | 0.0707 | 0.0892 |  | 0.0802 | 0.0914 | 0.103 | 0.0846 | 0.074 | 0.135 | 0.0949 | 0.0981 | 0.0952 | 0.0704 | 
I86E | 0.0373 | 0.0627 | 0.0417 |  |  | 0.0443 | 0.0034 | 0.0274 | 0.022 | 0.037 |  | 0.042 | 0.048 |  | 0.0363 | 0.0408 |  | 0.0339
D161T | 0.0795 | 0.0857 | 0.0916 | 0.0865 |  | 0.0797 | 0.0579 | 0.104 | 0.0744 |  | 0.0799 | 0.0047 | 0.0812 |  | 0.0954 | 0.104 |  | 
F49C | 0.0745 | 0.0715 | 0.0659 |  | 0.0597 | 0.065 |  | 0.0557 | 0.0643 | 0.0584 | 0.039 | 0.0568 | 0.0687 | 0.0779 | 0.0601 | 0.0719 |  | 
N175P | 0.076 | 0.062 | 0.0662 |  |  | 0.074 | 0.0488 | 0.0759 | 0.0938 |  | 0.0599 |  |  |  | 0.073 | 0.0642 |  | 
N175D | 0.0786 | 0.0665 | 0.0714 | 0.0823 | 0.0705 | 0.0701 | 0.067 |  | 0.0577 | 0.0683 | 0.0564 | 0.0737 | 0.0662 | 0.0847 |  | 0.0647 |  | 
M122W | 0.126 |  | 0.115 | 0.144 | 0.115 | 0.103 | 0.108 |  | 0.102 |  |  | 0.052 |  |  | 0.0806 | 0.112 | 0.0808 | 0.0817
M122L | 0.106 | 0.136 | 0.0892 | 0.139 |  | 0.0945 | 0.098 |  | 0.0912 |  |  | 0.0855 | 0.144 |  |  | 0.121 |  | 0.0982
M122H | 0.089 |  |  |  | 0.0195 | 0.0898 |  | 0.102 | 0.0915 | 0.0977 | 0.084 |  |  |  |  |  |  | 0.112
S60Q | 0.0498 | 0.128 | 0.0917 | 0.109 | 0.0467 | 0.0914 | 0.0484 | 0.0955 |  | 0.084 |  | 0.0735 |  |  |  |  |  | 0.106
L61D | 0.118 | 0.0593 | 0.0972 | 0.107 | 0.116 | 0.104 | 0.0865 | 0.139 | 0.136 | 0.126 |  | 0.0892 |  |  |  | 0.139 | 0.112 | 0.0921
S154G | 0.0752 | 0.0926 |  |  | 0.094 | 0.096 |  | 0.0806 | 0.063 | 0.0838 | 0.0866 |  | 0.073 | 0.0916 | 0.0588 | 0.093 | 0.0855 | 0.0851
S154P | 0.0544 |  | 0.0643 | 0.045 |  |  |  |  |  |  |  | 0.0739 |  |  |  |  |  | 0.0623
C111I | 0.0957 | 0.128 | 0.107 | 0.109 |  | 0.0738 | 0.0934 | 0.142 | 0.0784 | 0.102 | 0.091 |  |  |  | 0.0839 | 0.123 | 0.106 | 

Variant | area with substrate ECLYFQS | area with substrate EELYFQS | area with substrate EMLYFQS | area with substrate EPLYFQS | area with substrate ERLYFQS | area with substrate ESLYFQS | area with substrate EWLYFQS | area with substrate EDLYFQS | area with substrate EILYFQS | area with substrate EKLYFQS | area with substrate ELLYFQS | area with substrate EVLYFQS | area with substrate EYLYFQS | area with substrate EFLYFQS | area with substrate EGLYFQS | area with substrate EQLYFQS | area with substrate ETLYFQS | area with substrate EHLYFQS
C131S | 0.109 | 0.152 |  |  |  |  |  |  | 0.126 |  |  | 0.094 |  |  |  |  |  | 
G54Y | 0.0663 |  |  |  | 0.0871 | 0.067 |  | 0.0432 | 0.0616 | 0.0429 |  |  | 0.0721 |  | 0.0671 | 0.0854 | 0.205 | 0.102
D79I | 0.0659 |  |  |  |  | 0.0702 |  |  | 0.0779 |  |  |  |  |  | 0.0743 | 0.0996 |  | 0.107
Q151L | 0.0664 | 0.0984 |  |  | 0.0793 |  |  |  | 0.0819 |  |  | 0.0859 |  |  | 0.0779 | 0.105 |  | 0.121
Q151I | 0.0917 | 0.109 | 0.102 | 0.09 |  | 0.095 | 0.0922 |  | 0.0727 | 0.0947 |  | 0.0675 | 0.0871 |  | 0.0833 | 0.0877 | 0.106 | 0.0951
Q151P | 0.0605 |  | 0.0557 |  | 0.0575 | 0.0753 | 0.0511 | 0.0584 | 0.0611 |  |  | 0.0487 |  |  | 0.116 | 0.0363 |  | 
F92A | 0.0965 | 0.102 | 0.101 |  |  | 0.0676 |  | 0.143 | 0.0908 | 0.0584 | 0.0735 |  |  |  | 0.0786 | 0.118 | 0.0902 | 
Q74F | 0.0873 | 0.113 | 0.133 |  |  |  | 0.0863 |  | 0.0764 | 0.106 |  | 0.0896 |  |  |  |  |  | 0.0899
I85M | 0.0834 |  | 0.14 | 0.135 |  | 0.0954 |  | 0.123 | 0.0983 | 0.0976 | 0.0889 | 0.0845 | 0.0987 |  |  | 0.122 |  | 0.13
I85D | 0.0465 |  |  | 0.0316 |  | 0.0464 | 0.0682 | 0.0419 | 0.0453 | 0.0424 |  | 0.0483 |  |  |  | 0.0311 |  | 
I85V | 0.0897 |  | 0.0978 | 0.138 | 0.0926 | 0.1 |  | 0.0881 | 0.0796 | 0.105 | 0.0719 | 0.0888 |  | 0.144 | 0.0994 | 0.072 | 0.105 | 
F173L | 0.135 | 0.1 | 0.135 | 0.116 | 0.131 | 0.144 |  | 0.211 | 0.14 |  | 0.0874 | 0.112 | 0.101 |  | 0.0952 |  |  | 0.141
N52H | 0.0664 | 0.0896 | 0.0714 | 0.0578 |  |  |  |  | 0.0672 | 0.0704 |  | 0.0776 |  |  | 0.0702 |  | 0.0726 | 0.0875
D82W | 0.0545 |  | 0.052 | 0.0651 |  |  |  | 0.0563 | 0.0614 | 0.0379 |  | 0.0517 | 0.0497 | 0.0439 | 0.0559 | 0.0517 |  | 0.0557
S121L | 0.0905 |  | 0.116 | 0.124 | 0.102 | 0.11 |  | 0.12 | 0.0999 | 0.11 | 0.0866 | 0.097 |  | 0.137 | 0.0901 | 0.0949 | 0.101 | 
